Data from the supplement of paper PMC10369915.
The list shows a part of the results. Rule as the data show it: active = 3.2 or more and inactive = the rest. Most of these values are background signal.

Experiments:
Experiment in all cases: enrichment score (SH2-bound / input frequency) (ratio); bacterial display of known human phosphotyrosine sites (pTyr-Var adds point mutants) read by sequencing; higher = stronger binding; tyrosines were phosphorylated by kinases first
Settings in all cases: peptide library: pTyr-Var
SHP2 C-SH2 domain E139D = biological target: SHP2 C-SH2 domain E139D
[1] = biological target: SHP2 C-SH2 domain wild-type
SHP2 N-SH2 domain L43F = biological target: SHP2 N-SH2 domain L43F
SHP2 N-SH2 domain T42A = biological target: SHP2 N-SH2 domain T42A
SHP2 N-SH2 domain T52S = biological target: SHP2 N-SH2 domain T52S
[2] = biological target: SHP2 N-SH2 domain wild-type

Measured: enrichment score
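Also: displayed peptides selected on beads carrying the immobilized SH2 domain, with library peptides lacking any tyrosine serving as negative controls.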

LEQDEYALHSH [HADHB_Y244_R247H]
inactive: SHP2 C-SH2 domain E139D 0.868 | [1] 0.821 | SHP2 N-SH2 domain L43F 0.764 | SHP2 N-SH2 domain T42A 0.713 | SHP2 N-SH2 domain T52S 0.76 | [2] 1.05

ALTDNYMYLVI [HAGH_Y61]
inactive: SHP2 C-SH2 domain E139D 0.926 | [1] 0.82 | SHP2 N-SH2 domain L43F 0.781 | SHP2 N-SH2 domain T42A 0.686 | SHP2 N-SH2 domain T52S 0.779 | [2] 1.01

ALTDNYMYVVI [HAGH_Y61_L64V]
inactive: SHP2 C-SH2 domain E139D 0.629 | [1] 0.736 | SHP2 N-SH2 domain L43F 0.764 | SHP2 N-SH2 domain T42A 0.626 | SHP2 N-SH2 domain T52S 0.658 | [2] 1.06

DLREKYMDCGG [HAP1_Y440]
inactive: SHP2 C-SH2 domain E139D 0.774 | [1] 0.832 | SHP2 N-SH2 domain L43F 0.602 | SHP2 N-SH2 domain T42A 0.576 | SHP2 N-SH2 domain T52S 0.668 | [2] 0.651

VHFARYLAMNK [HARS1_Y138_P134H]
inactive: SHP2 C-SH2 domain E139D 0.714 | [1] 0.632 | SHP2 N-SH2 domain L43F 0.64 | SHP2 N-SH2 domain T42A 0.718 | SHP2 N-SH2 domain T52S 0.761 | [2] 0.499

TNIKRYHIAKV [HARS1_Y150]
inactive: SHP2 C-SH2 domain E139D 0.868 | [1] 0.847 | SHP2 N-SH2 domain L43F 0.915 | SHP2 N-SH2 domain T42A 0.865 | SHP2 N-SH2 domain T52S 1.1 | [2] 0.953

TNIKRYHIAKG [HARS1_Y150_V155G]
inactive: SHP2 C-SH2 domain E139D 0.904 | [1] 0.814 | SHP2 N-SH2 domain L43F 0.881 | SHP2 N-SH2 domain T42A 0.918 | SHP2 N-SH2 domain T52S 0.935 | [2] 0.896

HIAKVYRRDNP [HARS1_Y156]
inactive: SHP2 C-SH2 domain E139D 0.306 | [1] 0.415 | SHP2 N-SH2 domain L43F 0.353 | SHP2 N-SH2 domain T42A 0.331 | SHP2 N-SH2 domain T52S 0.483 | [2] 0.334

KKMKRYHVGKV [HARS2_Y151]
inactive: SHP2 C-SH2 domain E139D 0.987 | [1] 0.777 | SHP2 N-SH2 domain L43F 0.875 | SHP2 N-SH2 domain T42A 0.852 | SHP2 N-SH2 domain T52S 1.04 | [2] 0.942

AAGGRYDGLLG [HARS2_Y364_V368L]
inactive: SHP2 C-SH2 domain E139D 0.7 | [1] 0.682 | SHP2 N-SH2 domain L43F 0.705 | SHP2 N-SH2 domain T42A 0.477 | SHP2 N-SH2 domain T52S 0.672 | [2] 0.716

VPTSKYRGGGG [HBA1_Y141_L137P]
inactive: SHP2 C-SH2 domain E139D 0.48 | [1] 0.567 | SHP2 N-SH2 domain L43F 0.391 | SHP2 N-SH2 domain T42A 0.46 | SHP2 N-SH2 domain T52S 0.498 | [2] 0.598

VRTSKYRGGGG [HBA1_Y141_L137R]
inactive: SHP2 C-SH2 domain E139D 0.355 | [1] 0.216 | SHP2 N-SH2 domain L43F 0.263 | SHP2 N-SH2 domain T42A 0.296 | SHP2 N-SH2 domain T52S 0.321 | [2] 0.32

VLTSKYHGGGG [HBA1_Y141_R142H]
inactive: SHP2 C-SH2 domain E139D 0.642 | [1] 0.632 | SHP2 N-SH2 domain L43F 0.706 | SHP2 N-SH2 domain T42A 0.682 | SHP2 N-SH2 domain T52S 0.681 | [2] 0.767

ELTSKYRGGGG [HBA1_Y141_V136E]
inactive: SHP2 C-SH2 domain E139D 0.558 | [1] 0.548 | SHP2 N-SH2 domain L43F 0.533 | SHP2 N-SH2 domain T42A 0.579 | SHP2 N-SH2 domain T52S 0.53 | [2] 0.734

AHAGEYGAEAL [HBA1_Y25]
inactive: SHP2 C-SH2 domain E139D 0.577 | [1] 0.624 | SHP2 N-SH2 domain L43F 0.555 | SHP2 N-SH2 domain T42A 0.564 | SHP2 N-SH2 domain T52S 0.568 | [2] 0.651

EHAGEYGAEAL [HBA1_Y25_A20E]
inactive: SHP2 C-SH2 domain E139D 0.412 | [1] 0.438 | SHP2 N-SH2 domain L43F 0.404 | SHP2 N-SH2 domain T42A 0.404 | SHP2 N-SH2 domain T52S 0.511 | [2] 0.538

AHADEYGAEAL [HBA1_Y25_G23D]
inactive: SHP2 C-SH2 domain E139D 0.532 | [1] 0.563 | SHP2 N-SH2 domain L43F 0.496 | SHP2 N-SH2 domain T42A 0.395 | SHP2 N-SH2 domain T52S 0.401 | [2] 0.567

PTTKTYFPHFD [HBA1_Y43]
inactive: SHP2 C-SH2 domain E139D 0.735 | [1] 0.583 | SHP2 N-SH2 domain L43F 0.851 | SHP2 N-SH2 domain T42A 0.928 | SHP2 N-SH2 domain T52S 1.25 | [2] 0.902

PTTKTYFPHFA [HBA1_Y43_D48A]
inactive: SHP2 C-SH2 domain E139D 0.951 | [1] 0.83 | SHP2 N-SH2 domain L43F 0.731 | SHP2 N-SH2 domain T42A 0.839 | SHP2 N-SH2 domain T52S 0.907 | [2] 1.11

PTTKTYFPHFG [HBA1_Y43_D48G]
inactive: SHP2 C-SH2 domain E139D 0.862 | [1] 0.691 | SHP2 N-SH2 domain L43F 0.901 | SHP2 N-SH2 domain T42A 0.641 | SHP2 N-SH2 domain T52S 0.686 | [2] 0.682

PTTKTYFPHFF [HBA1_Y43_D48Y_YF]
inactive: SHP2 C-SH2 domain E139D 1.28 | [1] 0.818 | SHP2 N-SH2 domain L43F 1.33 | SHP2 N-SH2 domain T42A 1.2 | SHP2 N-SH2 domain T52S 1.17 | [2] 1.09

PTTKTYFPRFD [HBA1_Y43_H46R]
inactive: SHP2 C-SH2 domain E139D 0.806 | [1] 0.69 | SHP2 N-SH2 domain L43F 0.696 | SHP2 N-SH2 domain T42A 1.07 | SHP2 N-SH2 domain T52S 0.72 | [2] 0.747

PTTKTYFLHFD [HBA1_Y43_P45L]
inactive: SHP2 C-SH2 domain E139D 2.25 | [1] 2.35 | SHP2 N-SH2 domain L43F 2.72 | SHP2 N-SH2 domain T42A 2.03 | SHP2 N-SH2 domain T52S 2.3 | [2] 2.12

PVQAVYQKVVA [HBB_Y131_A130V]
inactive: SHP2 C-SH2 domain E139D 0.919 | [1] 0.951 | SHP2 N-SH2 domain L43F 0.891 | SHP2 N-SH2 domain T42A 1.17 | SHP2 N-SH2 domain T52S 0.721 | [2] 0.807

PVQAAYQKVVP [HBB_Y131_A136P]
inactive: SHP2 C-SH2 domain E139D 0.756 | [1] 0.835 | SHP2 N-SH2 domain L43F 0.769 | SHP2 N-SH2 domain T42A 0.745 | SHP2 N-SH2 domain T52S 0.89 | [2] 0.736

PVQAAYQNVVA [HBB_Y131_K133N]
inactive: SHP2 C-SH2 domain E139D 2.46 | [1] 2 | SHP2 N-SH2 domain L43F 2.43 | SHP2 N-SH2 domain T42A 3.09 | SHP2 N-SH2 domain T52S 2.47 | [2] 2.22

PVQAAYQQVVA [HBB_Y131_K133Q]
inactive: SHP2 C-SH2 domain E139D 1.23 | [1] 0.953 | SHP2 N-SH2 domain L43F 1.04 | SHP2 N-SH2 domain T42A 1.37 | SHP2 N-SH2 domain T52S 0.824 | [2] 1.02

PVKAAYQKVVA [HBB_Y131_Q128K]
inactive: SHP2 C-SH2 domain E139D 0.939 | [1] 0.906 | SHP2 N-SH2 domain L43F 1.04 | SHP2 N-SH2 domain T42A 0.869 | SHP2 N-SH2 domain T52S 1.03 | [2] 1.01

PVQAAYEKVVA [HBB_Y131_Q132E]
inactive: SHP2 C-SH2 domain E139D 0.45 | [1] 0.639 | SHP2 N-SH2 domain L43F 0.75 | SHP2 N-SH2 domain T42A 0.717 | SHP2 N-SH2 domain T52S 0.757 | [2] 0.957

PEQAAYQKVVA [HBB_Y131_V127E]
inactive: SHP2 C-SH2 domain E139D 0.723 | [1] 0.772 | SHP2 N-SH2 domain L43F 0.714 | SHP2 N-SH2 domain T42A 0.392 | SHP2 N-SH2 domain T52S 0.47 | [2] 0.761

PVQAAYQKVEA [HBB_Y131_V135E]
inactive: SHP2 C-SH2 domain E139D 0.684 | [1] 0.921 | SHP2 N-SH2 domain L43F 1.01 | SHP2 N-SH2 domain T42A 0.714 | SHP2 N-SH2 domain T52S 0.863 | [2] 0.827

TLAHKYHGGGG [HBB_Y146_A141T]
inactive: SHP2 C-SH2 domain E139D 0.584 | [1] 0.51 | SHP2 N-SH2 domain L43F 0.59 | SHP2 N-SH2 domain T42A 0.343 | SHP2 N-SH2 domain T52S 0.782 | [2] 0.636

ALDHKYHGGGG [HBB_Y146_A143D]
inactive: SHP2 C-SH2 domain E139D 0.908 | [1] 0.925 | SHP2 N-SH2 domain L43F 0.759 | SHP2 N-SH2 domain T42A 0.769 | SHP2 N-SH2 domain T52S 0.869 | [2] 0.811

ALADKYHGGGG [HBB_Y146_H144D]
inactive: SHP2 C-SH2 domain E139D 1.16 | [1] 0.76 | SHP2 N-SH2 domain L43F 0.645 | SHP2 N-SH2 domain T42A 0.515 | SHP2 N-SH2 domain T52S 0.855 | [2] 0.818

ALAQKYHGGGG [HBB_Y146_H144Q]
inactive: SHP2 C-SH2 domain E139D 0.587 | [1] 0.503 | SHP2 N-SH2 domain L43F 0.537 | SHP2 N-SH2 domain T42A 0.53 | SHP2 N-SH2 domain T52S 0.721 | [2] 0.987

ALAHKYLGGGG [HBB_Y146_H147L]
inactive: SHP2 C-SH2 domain E139D 0.511 | [1] 0.497 | SHP2 N-SH2 domain L43F 0.45 | SHP2 N-SH2 domain T42A 0.443 | SHP2 N-SH2 domain T52S 0.528 | [2] 0.512

ALAHKYPGGGG [HBB_Y146_H147P]
inactive: SHP2 C-SH2 domain E139D 0.923 | [1] 1.04 | SHP2 N-SH2 domain L43F 0.568 | SHP2 N-SH2 domain T42A 1.92 | SHP2 N-SH2 domain T52S 1.38 | [2] 0.143
